# Results: PubChem BioAssay AID1460 (National Center for Advancing Translational Sciences (NCATS), 2008)
# The whole screen tested about 270,000 compounds, of which about 5,800 (2.1%) were called active. Inconclusive results, whose numbers are uncertain, are shown with a selection of clear calls. Calls come from the whole dose curve; as a rule, active = well fitted inhibition curve with a large enough effect; inconclusive = small, poorly fitted or top-dose-only effect; inactive = flat fitted curve, though single readings scatter. Potencies beside an inconclusive call are fits to weak or partial responses and may not hold up.
# Target: Microtubule-associated protein tau (Homo sapiens) (UniProt P10636)
# Chain of UniProt P10636 (P10636 whole entry, looked up): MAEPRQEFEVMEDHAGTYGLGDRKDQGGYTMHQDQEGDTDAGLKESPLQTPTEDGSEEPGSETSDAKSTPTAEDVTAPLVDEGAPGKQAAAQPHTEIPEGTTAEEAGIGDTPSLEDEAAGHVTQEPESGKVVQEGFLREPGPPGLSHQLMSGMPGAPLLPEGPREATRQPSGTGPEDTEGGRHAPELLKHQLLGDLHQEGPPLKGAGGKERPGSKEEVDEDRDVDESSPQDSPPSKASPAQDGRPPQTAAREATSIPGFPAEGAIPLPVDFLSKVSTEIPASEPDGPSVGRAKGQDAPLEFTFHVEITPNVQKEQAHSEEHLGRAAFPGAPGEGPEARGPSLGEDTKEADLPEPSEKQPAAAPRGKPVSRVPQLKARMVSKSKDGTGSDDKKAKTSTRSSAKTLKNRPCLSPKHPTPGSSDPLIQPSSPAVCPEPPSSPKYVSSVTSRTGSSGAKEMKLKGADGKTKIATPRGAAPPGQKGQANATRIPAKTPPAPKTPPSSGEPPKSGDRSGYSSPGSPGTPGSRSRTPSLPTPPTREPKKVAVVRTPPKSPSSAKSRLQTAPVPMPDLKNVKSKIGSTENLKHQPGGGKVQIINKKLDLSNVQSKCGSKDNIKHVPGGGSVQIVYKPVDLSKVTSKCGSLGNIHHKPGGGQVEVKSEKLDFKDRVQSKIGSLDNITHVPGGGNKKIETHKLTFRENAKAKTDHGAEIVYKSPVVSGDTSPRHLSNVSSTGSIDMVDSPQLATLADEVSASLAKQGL
# Test: qHTS for Inhibitors of Tau Fibril Formation, Thioflavin T Binding; note: nearly all actives have a fitted effect of over 55% in size
# Settings: recombinant tau K18 P301L (four-repeat tau fragment), heparin-induced fibrillization, ThT fluorescence; series mostly up to 57.4 µM
# In short: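 K18 P301L tau (15 uM + 0.24 uM Alexa 594-tagged), heparin 20 uM, NaOAc pH 7, 6 h 37 C; ThT 30 uM, 1 h RT, ex 450/em 510 nm.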
# % is set by controls: 0 for no effect and ±100 for the full control effect; potency is the fitted concentration of half-maximal effect; tags give direction and shape of the fitted curve.
Compound,Potency,"activity, negative = inhibition"
O=C1NCCN(Cc2ccoc2)C1CC(=O)N(CCO)Cc1ccccc1 (stereo unspecified),inactive,–
COC(CNC(=O)c1ccc2c(c1)nc(C)n2-c1ccc(F)c(F)c1)OC,inactive,–
COc1cccc2c1cc1c(=O)n(CC(=O)NCc3ccco3)nc(C)n12,inactive,–
Cc1ccc(-n2c(SCC(=O)NCc3ccco3)nc3nc4c(cc3c2=O)COC(C)(C)C4)cc1,"inconclusive: 31.6 µM [inhibitor, single point]",–
S=C1NC2=C(CCCC2=C2SCCCS2)C(c2ccccc2)N1 (stereo unspecified),inactive,–
O=Cc1ccc(-n2cncn2)cc1,inactive,–
O=C(CCC(=O)CCN1CCCCC1)CCN1CCCCC1,"inconclusive: 7.94 µM [inhibitor, partial curve]",–
CCCCC#CC1C=CC(OC(C)=O)C(COC(C)=O)O1 (stereo unspecified),–,inactive: -32.3% [at 11.5 µM]
CCCC1=NN2C(=N)/C(=C\c3ccc(SCc4ccco4)o3)C(=O)N=C2S1,active: 10 µM,–
O=[N+]([O-])c1ccccc1S(=O)(=O)NC1CCCC1,inactive,–
Brc1ccc(-c2ccc(/C=N/Nc3nncc(-c4ccccc4)n3)o2)cc1,active: 2 µM,–
O=C(Nc1ccc(Cl)cc1)c1ccc(-n2cccn2)c([N+](=O)[O-])c1,"inconclusive: 15.8 µM [inhibitor, partial curve]",–
Cc1ccc2oc(C(=O)N(Cc3sccc3C)C3CCS(=O)(=O)C3)c(C)c2c1 (stereo unspecified),"inconclusive: 15.8 µM [inhibitor, partial curve]",–
COc1ccccc1N1CCN(C(=O)CSc2ncnc3scc(-c4ccccc4)c23)CC1,"inconclusive: 39.8 µM [inhibitor, single point]",–
CC(NC(=O)c1ccc(Cl)c(Cl)c1)c1ccc(-c2ccccc2)cc1 (stereo unspecified),inactive,–
CCOc1ccc(NC(=O)c2cc(S(=O)(=O)N3CCN(c4ccccc4F)CC3)ccc2F)cc1,inactive,–
COc1ccc(OCC(=O)Nc2cccc(OC)c2)cc1,inactive,–
Cc1cc(NC(=O)c2ccccc2)sc1C,"inconclusive: 17.8 µM [inhibitor, partial curve]",–
COc1ccc(S(=O)(=O)N(CC(=O)N2CCOCC2)Cc2ccccc2)cc1,inactive,–
CSc1c(-c2ccccc2)nc2ccc(Cl)cc2c1C(=O)O,inactive,–
Cn1ccnc1Sc1ccc(/C=N/NC(=O)c2ccccc2O)cc1[N+](=O)[O-],"inconclusive: 17.8 µM [inhibitor, partial curve]",–
Cc1ccc(NC(=O)c2scc3c2CCCC3)cc1,"inconclusive: 15.8 µM [inhibitor, partial curve]",–
CCOC(=O)c1ccc(NCc2nc3ccccc3[nH]2)cc1,"inconclusive: 3.98 µM [inhibitor, partial curve]",–
Cc1ccc(C(=O)CNc2cccc([N+](=O)[O-])c2)cc1,"inconclusive: 6.31 µM [inhibitor, full curve]",–
COc1ccc(-c2[nH]ncc2-c2ccc(Cl)cc2)c(O)c1,inactive,–
CNC(=O)/C(C#N)=C/c1cn(CC(=O)OC)c2ccccc12,inactive,–

Compound,Potency,"activity, negative = inhibition"
O=C1C(=O)N(Cc2ccc(Cl)c(Cl)c2)c2ccccc21,active: 14.1 µM,–
CCOc1ccc(N/C=C/C(=O)c2ccccc2)c([N+](=O)[O-])c1,active: 1.41 µM,–
COc1ccc(/C(N)=N/OC(=O)/C=C/c2ccccc2)cc1,"inconclusive: 3.16 µM [inhibitor, full curve, poor fit]",–
CN(C)c1ccc(CNC(=O)C2CCN(Cc3cc4ccccc4n3Cc3ccccc3)CC2)cc1,inactive,–
COCCn1c(SCc2nnc(-c3ccccc3)o2)nc2sc3c(c2c1=O)CCC3,inactive,–
CCOC(=O)C1C(=O)NC(SCC(=O)Nc2nccs2)=C(C#N)C1c1ccccc1OCC (stereo unspecified),"inconclusive: 31.6 µM [inhibitor, single point]",–
CCCCC(=O)Nc1nnc(S(=O)(=O)N(C)Cc2ccccc2)s1,"inconclusive: 0.355 µM [inhibitor, full curve]",–
CCn1c(C(=O)OC)cc2c1ccn2-c1ccc(F)cc1,"inconclusive: 25.1 µM [inhibitor, partial curve, poor fit]",–
COc1ccc(CCn2c(-c3ccco3)nc3nc4ccccc4nc32)cc1OC,"inconclusive: 22.4 µM [inhibitor, partial curve]",–
CCOc1ccccc1CNC(=O)Cn1nc(N2CCN(c3ccccc3)CC2)ccc1=O,inactive,–
Cc1cccc(NC(=S)NNC(=O)c2cccc([N+](=O)[O-])c2)c1,"inconclusive: 35.5 µM [inhibitor, single point]",–
Cc1nnsc1C(=O)NNc1ccc(C(C)(C)C)cc1,inactive,–
O=C(N/N=C/c1cccc(Cl)c1)C(c1ccncc1)N1CCOCC1 (stereo unspecified),"inconclusive: 11.2 µM [inhibitor, single point]",–
COc1ccc(CN2C(=O)/C(=C/c3ccncc3)SC2=S)cc1,"inconclusive: 22.4 µM [inhibitor, partial curve]",–
CC(C)n1c(N)c(C#N)c2ccc([N+](=O)[O-])cc2c1=O,"inconclusive: 39.8 µM [inhibitor, single point]",–
O=c1[nH]c2ccc(Cl)cc2c(O)c1Cc1ccccc1,"inconclusive: 28.2 µM [inhibitor, single point]",–
CCOc1ccc(-n2c(O)c(/C=N/NC(=O)C3COc4ccccc4O3)c3ccccc3c2=O)cc1 (stereo unspecified),"inconclusive: 15.8 µM [inhibitor, partial curve]",–
COc1cccc(CNS(=O)(=O)c2c(C(=O)N3CCC(C)CC3)c(C)n(C)c2C)c1,inactive,–
O=C(COc1ccc(F)cc1)OCc1cc(=O)n2nc(-c3cccs3)sc2n1,"inconclusive: 5.01 µM [inhibitor, partial curve, poor fit]",–
Cc1ccccc1NC(=S)NCCc1ccccc1,inactive,–
O=C(Nc1ccc(N2CCCC2)cc1)c1ccc2ccccc2c1,"inconclusive: 1.12 µM [inhibitor, full curve]",–
CC(C)CN(CC(C)C)CC(O)Cn1cc(/C=C/C(=O)c2ccccc2)c2ccccc21 (stereo unspecified),"inconclusive: 10 µM [inhibitor, partial curve]",–
COc1ccc(/C=C(\C#N)c2nc3ccccc3c(=O)[nH]2)cc1OC,inactive,–
O=C(OCC#CCSc1nnc(-c2ccc(Br)cc2)o1)c1cccs1,"inconclusive: 1.12 µM [inhibitor, partial curve]",–
O=C(Nc1ccc(C(O)(C(F)(F)F)C(F)(F)F)cc1)c1ccc(Cl)c([N+](=O)[O-])c1,"inconclusive: 14.1 µM [inhibitor, partial curve]",–
Cc1ccc(-c2cc(C(F)(F)F)n3ncc(-c4ccccc4)c3n2)cc1,"inconclusive: 15.8 µM [inhibitor, partial curve]",–

Compound,Potency,"activity, negative = inhibition"
COc1cc(/C=N/N=C(/N)c2nonc2N)cc(Br)c1OCc1ccccc1C,"inconclusive: 1.41 µM [inhibitor, full curve, poor fit]",–
CCOc1ccc(C(=O)c2oc3ccccc3c2NC(=O)c2cc(-c3ccc(C)cc3)on2)cc1,inactive,–
O=C(CN1C(=O)CSC1=O)N1CCCCC1,inactive,–
COc1ccc(CCNC(=O)Cn2cc(S(=O)(=O)Cc3ccc(F)cc3)c3ccccc32)cc1OC,"inconclusive: 28.2 µM [inhibitor, single point]",–
COc1cc2c(cc1OC)C(C(=O)c1ccc(OC)c(OC)c1O)=NCC2,inactive,–
COc1ccc(-c2nc(N)c(C#N)c(-c3cccnc3)c2C)cc1,"inconclusive: 12.6 µM [inhibitor, partial curve, poor fit]",–
CC1CC(N(C(=O)c2ccc(Cl)cc2)c2ccccc2)c2ccccc2N1C(=O)c1ccco1 (stereo unspecified),"inconclusive: 6.31 µM [inhibitor, partial curve]",–
O=S1(=O)c2cccc3cccc(c23)N1Cc1nnc(-c2ccccc2Br)o1,inactive,–
O=C(Nc1ccc(Br)cc1)N1CCCCCCC1,inactive,–
CCCc1ccc(OC(=O)c2cccs2)cc1,inactive,–
COc1ccc(C2CC(c3ccccc3)=NN2c2ccc(/C=N/NC(=O)c3ccncc3)cc2)cc1 (stereo unspecified),"inconclusive: 28.2 µM [inhibitor, partial curve]",–
COC(=O)c1ccc(NC(=O)CSc2nc(C)cc(=O)[nH]2)cc1,"inconclusive: 20 µM [inhibitor, partial curve]",–
O=C(NCc1ccc(Cl)cc1)NC1COc2ccccc2C1 (stereo unspecified),inactive,–
N#C/C(=C\c1ccc(C#N)cc1)C(=O)c1ccccc1,inactive,–
CCOC(=O)C1CCN(S(=O)(=O)c2ccc(OCC(=O)OC)cc2)CC1,inactive,–
CC(=O)/C(C#N)=C1\NC(=O)C(Cc2ccccc2)S1 (stereo unspecified),"inconclusive: 28.2 µM [inhibitor, partial curve]",–
COc1ccc(NC(=S)NNC(=O)c2cccnc2)cc1OC,inactive,–
Cc1ccc2[nH]c(=O)c(CN(C(=O)c3cccc([N+](=O)[O-])c3)C(C)C)cc2c1,inactive,–
COC(=O)CCC(C)C1CCC2C3CC[C@H]4CC(O)CC[C@@]4(C)C3CC(O)[C@]12C (stereo partly specified),"inconclusive: 35.5 µM [inhibitor, partial curve, poor fit]",–
C=C(C)C(=O)Nc1cccnc1Oc1ccc(F)cc1F,"inconclusive: 2.51 µM [inhibitor, full curve, poor fit]",–
CCCCC(=O)Nc1ccc2c(c1)nc1n2CCN(CCOC)C1,"inconclusive: 22.4 µM [inhibitor, partial curve, poor fit]",–
CC(=O)Nc1sc2c(c1C#N)CCC2,inactive,–
S=c1[nH]nc(Nc2cccc3ccccc23)s1,"inconclusive: 39.8 µM [inhibitor, single point]",–
CCOc1cc(NC(=S)Nc2ccccc2OC)c(OCC)cc1NC(=O)c1ccccc1C,inactive,–
